Test results from PubChem BioAssay AID1645887 (National Center for Advancing Translational Sciences (NCATS), 2021).
Where “and” joins values, the source holds several entries; their conditions need not be identical. Equal values may be shown once. About 40 (0.2%) of roughly 16,000 compounds were called active. Not shown: some 1% with an inconclusive outcome. The call rests on the fitted dose curve; in most records, active means well fitted activation curve with a large enough effect; inconclusive means small, poorly fitted or top-dose-only effect, or another doubt; inactive means no such curve, though single readings can be large or run the other way. The list shows a part of the results.

The molecules below were run against Rap guanine nucleotide exchange factor 4 (Homo sapiens) (UniProt Q8WZA2) (assay: Validation qHTS for agonist of cAMP-regulated guanine nucleotide exchange factor 4 (EPAC2)). Details: EPAC2 Rap1B BODIPY-GDP exchange, fluorescence; activation: stronger effect = higher value.
Sequence of UniProt Q8WZA2 (Q8WZA2 whole entry, looked up): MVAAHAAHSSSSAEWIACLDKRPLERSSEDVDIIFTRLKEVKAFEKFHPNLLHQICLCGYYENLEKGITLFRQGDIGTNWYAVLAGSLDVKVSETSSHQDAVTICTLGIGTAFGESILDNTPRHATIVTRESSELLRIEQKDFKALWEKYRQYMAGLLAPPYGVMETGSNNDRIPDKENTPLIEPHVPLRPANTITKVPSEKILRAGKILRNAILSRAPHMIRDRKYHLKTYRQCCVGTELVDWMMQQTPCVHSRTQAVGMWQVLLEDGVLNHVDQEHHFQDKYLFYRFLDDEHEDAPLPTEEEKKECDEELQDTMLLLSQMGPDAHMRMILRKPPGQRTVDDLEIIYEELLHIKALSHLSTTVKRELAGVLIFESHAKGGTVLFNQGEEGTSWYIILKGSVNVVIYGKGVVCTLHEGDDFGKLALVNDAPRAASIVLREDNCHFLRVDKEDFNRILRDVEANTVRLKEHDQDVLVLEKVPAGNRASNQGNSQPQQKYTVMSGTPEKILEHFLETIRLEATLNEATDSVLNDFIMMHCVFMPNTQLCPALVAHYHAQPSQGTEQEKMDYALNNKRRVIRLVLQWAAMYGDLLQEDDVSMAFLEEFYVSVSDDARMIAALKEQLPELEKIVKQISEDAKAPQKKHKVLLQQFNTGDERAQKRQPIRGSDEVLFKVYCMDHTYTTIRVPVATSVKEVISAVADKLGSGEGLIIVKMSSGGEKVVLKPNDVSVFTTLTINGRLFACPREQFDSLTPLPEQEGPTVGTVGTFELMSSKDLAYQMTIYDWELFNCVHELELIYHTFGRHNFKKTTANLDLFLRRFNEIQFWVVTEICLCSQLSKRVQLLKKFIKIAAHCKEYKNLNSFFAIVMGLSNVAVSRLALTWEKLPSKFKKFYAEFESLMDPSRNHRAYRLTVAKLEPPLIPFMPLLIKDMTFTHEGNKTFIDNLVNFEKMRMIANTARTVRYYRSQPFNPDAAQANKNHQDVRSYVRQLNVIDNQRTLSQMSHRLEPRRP
How it was run: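 Fluorescent exchange assay: 100 nM EPAC2 with 250 nM RAP1B-BODIPY-GDP and 50 uM GDP; compound added, 5 min at room temperature, then read (ex 480/em 540 nm) every 5 min for 30 min. Normalized to 6.5 mM cAMP agonist control.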
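Further: exchange makes BODIPY-GDP fluorescence drop when released from Rap1B; series mostly up to about 150 µM.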
On the % scale 0 is the no-effect control and ±100 the full control effect.

activation, inactive:
COc1ccc(C(C)N(C)Cc2nc(N3CCN(C(=O)c4ccco4)CC3)c3ccccc3n2)cc1 (configuration not stated) 4.59%, Cc1ccc(CNc2nc(CN3CCSCC3)nc3ccccc23)o1 12.9%, COCCN1CCN(C(=O)c2cnn(-c3nccc(-c4ccco4)n3)c2C(C)C)CC1 -0.691%, CCCCN1CC[C@H]2C=CC[C@@H](C(=O)Nc3nccs3)[C@H]2C1=O -8.44%, Nc1ccn([C@H]2CS[C@@H](CO)O2)c(=O)n1 6.23%, Cc1nc2cc(NC(=O)C3CC34CCN(Cc3ccc(O)c(Cl)c3)CC4)ccc2s1 (configuration not stated) 7.25%, COc1ncc2nc(-c3ccccc3)c(=O)n(C)c2n1 -1.94%, COCC(=O)N1CCC2(CCN(Cc3ccncc3)CC2)CC1 -14.3%, COc1cccc(-c2ccc3ncnc(NCCN4CCOCC4)c3c2)c1 -6.34%, O=S1(=O)[C@H]2C[C@@H]3C=C[C@@]2(CN1Cc1cccc(F)c1)O3 -14.7%, CN1CCN(c2ncc3nc(CCc4ccccc4)c(=O)n(Cc4ccc(F)cc4)c3n2)CC1 6.18%, C=C1C[C@H]2[C@@H]3C=C(C)C4=CC(=O)CC[C@]4(C)[C@H]3CC[C@]2(C)[C@@]1(OC(C)=O)C(C)=O -3.47%, C[C@H](N)CCP(=O)(O)O -2.79%, O=C(c1cccc(F)c1)N1CCC2(CC1)CN(c1ncccn1)C2 1.34%, COC(=O)C[C@](O)(CCCC(C)(C)O)C(=O)O[C@@H]1C(OC)=CC23CCCN2CCc2cc4c(cc2[C@H]13)OCO4 (some centres not stated) -24.8%, c1ccc(CNc2ccnc(-c3cccnc3)n2)cc1 -29.2%, O=c1oc(Cl)c(Cl)c2ccccc12 0.201%, O=C(NCc1ccccn1)c1cnn(-c2ncc3c(n2)-c2ccccc2CC3)c1C1CC1 -10.1%, CC1=C(\C=C/C(C)=C/C=C\C(C)=C\C(=O)O)C(C)(C)CCC1 -18.3% and -14.5% and -3.87%, Cc1cc(-c2ccnc(-n3ncc(C(=O)NCC4CCCN(C)C4)c3C3CC3)n2)c(C)s1 (configuration not stated) -15.9%, CN1C2CC(OC(=O)[C@H](CO)c3ccccc3)CC1C1OC12 (some centres not stated) -21.6%, N[C@H]1C(O)O[C@H](CO)[C@@H](O)[C@@H]1O (some centres not stated) 9.11%, Cc1cc(C(=O)NCC2CCC3(CCN(Cc4ccccc4C)CC3)O2)n(C)n1 (configuration not stated) -9.56%, OCC1OC(n2cnc3c(Cl)ncnc32)C(O)C1O (configuration not stated) -1.75%, CC(C)C(N)C(=O)O (configuration not stated) 8.46%, COc1cc(NS(C)(=O)=O)ccc1Cc1c2ccccc2nc2ccccc12 -17.5%, O=C1Nc2ccccc2C(=O)N2CCC[C@@H]12 -11.5%, COc1ccc(-c2cc(=O)c3c(O)cc(O)cc3o2)cc1 -13.7% and -6.18%, Cc1cnc(C)c(-c2ccc3c(c2)CC(CNC(=O)Cc2c(C)[nH]c4ccccc24)O3)n1 (configuration not stated) -7.2%, CC(=O)N[C@@H](CC(=O)N[C@@H](CCC(=O)O)C(=O)O)C(=O)O 9.5%, O=S(=O)(c1ccccc1)N1CCC2(CCCN(C(c3ccccc3)c3ccccc3)C2)CC1 -18.5%, c1ccc(C(NCCNC(c2ccccc2)c2ccccc2)c2ccccc2)cc1 -62.9%, O=c1c(O)cccc2cc(O)c(O)c(O)c12 1.02%, CCCCCCCCCCCCCCCC(=O)OCCC1CCN(CCCN2c3ccccc3Sc3ccc(S(=O)(=O)N(C)C)cc32)CC1 -14.3%, N#CCCn1c(=O)c(-c2ccccc2)nc2cnc(N3CCNCC3)nc21 -6%, Cc1ccc(S(=O)(=O)NC(=O)NN2CC3CCCC3C2)cc1 (configuration not stated) -5.8% and -1.93% and -16%, CCC(C)C(C(=O)OCC[N+](C)(CC)CC)c1ccccc1 (configuration not stated) 3.27%, CC(C)CN1CCCC2(CCN(C(=O)c3cccc(F)c3)CC2)C1 -15.5%, COc1ccc(-n2c(=O)c(CCc3ccccc3)nc3cnc(N4CCOCC4)nc32)cc1 -0.528%, CCNc1ncc2nc(-c3ccc(Cl)cc3)c(=O)n(CCC#N)c2n1 -1.79%, COC(=O)c1cc(CNC(=O)c2ccccc2)cc(NC(=O)c2ccccc2OC)c1 -4.47%, CN1CCN(c2ncc3nc(CCc4ccccc4)c(=O)n(C)c3n2)CC1 -1.46%, O=C(O)c1cc2ccccc2[nH]1 -20.8%, CN(Cc1ccco1)c1cc(-c2cccc(C#N)c2)ncn1 -0.907%, O=c1c(-c2ccccc2)nc2cnc(N3CCOCC3)nc2n1C1CC1 7.86%, CCN(CC)CCOc1ccc(Cc2ccccc2)cc1 -22.7% and -6.07%, O=c1cc(-c2ccccc2)oc2cc(O)c(O)cc12 -10.7%, CCCCCCCCN1[C@@H](CC(=O)O)c2ccc(C(F)(F)F)cc2S1(=O)=O -38%, CS(=O)(=O)N1CCC2(CCCN(Cc3cc(C(F)(F)F)cc(C(F)(F)F)c3)C2)CC1 -1.72%, O=S(=O)(NCc1ccc(F)cc1)c1cc(Br)ccc1Br -6.36%, CC1OCC23CC[C@@]4(C)CCC(C)(C)C[C@H]4[C@]2(C)CCC12C3CC[C@@]1(C)C2C(=O)CC(=O)[C@@H]1C (some centres not stated) -9.13%, O=c1c(O)c(-c2cc(O)c(O)c(O)c2)oc2cc(O)cc(O)c12 1.49% and -48.5% and -38.3%, CC(C)c1ccc(C(=O)C[N+]2(C)CCOCC2)cc1 -18.4%, N#CC(C#N)=C(N)/C(C#N)=C/c1ccc(O)cc1 -20%, COc1cccc(Nc2ncc3nc(C)c(=O)n(C)c3n2)c1 -3.31%, CCn1cc(C(=O)O)c(=O)c2cnc(N3CCNCC3)nc21 -6.31% and 6.76%, CCCCS(=O)(=O)N[C@@H](Cc1ccc(OCCCCC2CCNCC2)cc1)C(=O)O -4.31%, CCc1nc(CN2CCOc3ccc(C(O)C4CCCCC4)cc3C2)c(C)[nH]1 (configuration not stated) -13%, NCCS(=O)(=O)O -25.2% and -9.12% and -4.37%, CCN1CCCC1CNCc1cc2c(OC)c(OC)c(OC)cc2nc1N(C)C (configuration not stated) -2.98%, C[C@@](N)(Cc1ccc(O)cc1)C(=O)O -20.2%, CCCC[C@@H](C=O)NC(=O)[C@H](CC(C)C)NC(=O)OCc1ccccc1 -14.7%, O=C(NCc1nnc2n1CCN(Cc1cc(F)cc(F)c1)CC2)c1cccc(F)c1 -0.177%, CN(C)Cc1ccccc1-c1cc(Nc2ccccc2)ncn1 -10.1%, OCCCc1ccccc1 2.65%, CO/N=C(/C(=O)N[C@@H]1C(=O)N2C(C(=O)OCOC(=O)C(C)(C)C)=C(C)CS[C@H]12)c1csc(N)n1 -8.29%, Cc1noc(C)c1-c1cc(NCc2cccnc2)ncn1 -10.8%, COc1nc(C)nc(Cl)c1NC1=NCCN1 -7.69% and -16.5%, Cc1cnc(CNc2ncncc2-c2ccccc2C#N)cn1 -12%, CC(=O)N[C@@H](C=O)[C@H](O)[C@H](O)[C@@H](O)CO -13.3% and -5.15%, CC(=O)Oc1ccc2c(c1C(C)C)CCC1C(C)(C)CCC[C@@]21C (some centres not stated) 18.7%, COc1ccc(C(=O)N2CCC[C@@]3(CCN(Cc4ccccc4OC)C3)C2)cc1 2.26%, O=C(CCCN1CC=C(n2c(=O)[nH]c3ccccc32)CC1)c1ccc(F)cc1 3.75% and -7.24%, O=c1cnc2cnc(Nc3ccccc3)nc2n1C1CC1 6.8%, C=CC(C1=CC(=O)C=CC1=O)c1ccc(O)cc1 (configuration not stated) 8.18%, CC(=O)NCCNc1nc(-c2cccc(NS(C)(=O)=O)c2)nc2ccccc12 -15.2%, Cc1c(C(=O)NCC2(N3CCCCC3)CCCC2)cnn1-c1nccc(-c2ccccc2F)n1 -1.69%, CCC(=O)O -12.9%, C=NCc1cc2c(OC[C@@H](O)CNC(C)(C)C)cccc2[nH]1 -3.68%, CN(C)C(=O)c1ccc(-c2nc(NCc3cccnc3)c3ccccc3n2)cc1 -2.74%, CCN(CC)CCNC(=O)c1cc(S(C)(=O)=O)ccc1OC -21.3% and 3.56% and 10.2%, CCCCCCCCCCCCC/C=C\[C@@H](O)[C@H](CO)NC(C)=O -54.3%, CCCCCCCC/C=C\CCCCCCCC(=O)N[C@@H](CO)Cc1ccc(O)cc1 -54.1%, COc1cc(-c2cc(C)c3cccc(OC)c3n2)cc2c1OCCN(C(=O)Cn1nc(C)cc1C)C2 -3.12%, Cc1cc2c(cc1C)N[C@]1(C[C@H]3CCCC(=O)N4CC[C@@H](C1)[C@@H]34)C(=NC(C)(C)CC(C)(C)C)N2 -45.2%, Oc1c(I)cc(I)c2cccnc12 4.07%, CC1CCC(=O)N(CCSc2ccccc2)CC1 (configuration not stated) -12.9%
